# In all, about 310,000 compounds went through this assay and about 2,200 (0.71%) showed an effect of 50% or more. The effect is printed as a negative number. Some of the results follow.
# Target: human ether-à-go-go-related gene (hERG) potassium channel (human, UniProt Q12809)
# Assay: primary screen, population patch clamp on CHO cells stably expressing hERG
# Chain of human ether-à-go-go-related gene (hERG) potassium channel (Q12809 whole entry, looked up): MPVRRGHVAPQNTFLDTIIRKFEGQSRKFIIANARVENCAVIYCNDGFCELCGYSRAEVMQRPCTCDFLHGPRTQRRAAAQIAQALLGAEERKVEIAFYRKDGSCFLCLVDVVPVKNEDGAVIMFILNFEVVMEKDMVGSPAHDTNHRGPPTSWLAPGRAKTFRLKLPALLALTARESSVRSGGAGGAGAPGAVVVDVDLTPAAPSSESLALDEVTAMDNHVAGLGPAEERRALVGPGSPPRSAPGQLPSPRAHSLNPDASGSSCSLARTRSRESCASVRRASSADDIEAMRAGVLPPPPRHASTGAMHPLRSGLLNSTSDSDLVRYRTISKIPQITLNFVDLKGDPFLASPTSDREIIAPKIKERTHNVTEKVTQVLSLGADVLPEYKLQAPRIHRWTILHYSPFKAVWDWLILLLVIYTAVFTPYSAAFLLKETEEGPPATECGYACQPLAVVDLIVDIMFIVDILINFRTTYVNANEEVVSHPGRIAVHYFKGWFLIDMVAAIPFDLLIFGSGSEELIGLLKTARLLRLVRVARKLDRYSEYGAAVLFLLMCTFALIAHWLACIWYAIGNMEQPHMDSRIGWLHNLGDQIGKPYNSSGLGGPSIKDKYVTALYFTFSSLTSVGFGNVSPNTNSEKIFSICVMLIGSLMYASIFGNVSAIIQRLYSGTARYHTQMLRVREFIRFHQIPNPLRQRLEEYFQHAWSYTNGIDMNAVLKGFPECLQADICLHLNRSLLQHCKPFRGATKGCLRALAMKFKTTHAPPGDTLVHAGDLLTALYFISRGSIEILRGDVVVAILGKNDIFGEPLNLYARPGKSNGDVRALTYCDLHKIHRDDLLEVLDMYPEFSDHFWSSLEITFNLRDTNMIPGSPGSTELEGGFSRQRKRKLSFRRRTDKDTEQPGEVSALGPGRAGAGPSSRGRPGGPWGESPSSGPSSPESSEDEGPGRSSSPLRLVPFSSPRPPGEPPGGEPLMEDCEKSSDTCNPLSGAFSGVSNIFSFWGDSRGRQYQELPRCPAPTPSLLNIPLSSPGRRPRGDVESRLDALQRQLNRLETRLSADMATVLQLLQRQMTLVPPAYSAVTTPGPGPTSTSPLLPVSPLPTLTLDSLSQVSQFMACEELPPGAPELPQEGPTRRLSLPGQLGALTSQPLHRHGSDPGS
row,SMILES,"hERG current change (%, negative = inhibition) at 1uM"
1,CC(C)[C@H](NC(=O)N1c2ccccc2NC(=O)[C@@H]1C(C)C)C(=O)N[C@H](C(=O)O)c1ccccc1,-7.26%
2,CC(NC(=O)CN(c1ccc(Br)cc1)S(C)(=O)=O)c1ccccc1 (stereo not shown),5.11%
3,COc1ccc(-c2[nH]c3ccccc3c2SCCNC(=O)c2cc3ccccc3oc2=O)cc1,10.3%
4,COC(=O)[C@@H]1[C@@H](C)OC(=O)N[C@H]1c1ccccc1,-8.26%
5,O=C(CSc1ccccn1)c1ccc(F)cc1,-21.5%
6,CC(C)N(C(=O)CSc1nnc(Cc2csc(Nc3ccccc3)n2)o1)C(C)C,9.96%
7,Cc1nc(SCC(N)=O)c([N+](=O)[O-])[nH]1,-26.7%
8,O=C(N/C(=C/c1ccc(Br)cc1)C(=O)N1CCCC1)c1ccccc1F,-27.2%
9,CC(NC(=O)c1cc2ccccc2o1)c1cccs1 (stereo not shown),8.94%
10,Cc1nnc2sc(SCC(=O)Nc3ccc(Br)cc3)nn2c1=O,4.53%
11,COc1ccc2oc(C(=O)N(CC(C)C)C3CCS(=O)(=O)C3)c(C)c2c1 (stereo not shown),-0.145%
12,COc1cccc(OC)c1C(=O)OCC(=O)Nc1ccc(OC(F)(F)F)cc1,-16.4%
13,COc1cc(/C=C2\SC(N3CCc4ccccc4C3)=NC2=O)cc(OC)c1OC,5.93%
14,COc1ccccc1NC(=O)C1CCN(S(=O)(=O)c2ccc3c(c2)NC(=O)C(C)S3)CC1 (stereo not shown),9.65%
15,CC(=O)Nc1ccc(NC(=O)C2CCCN2/C=C/C(=O)C(F)(F)F)cc1 (stereo not shown),7.22%
16,COC(=O)N/N=C/c1cc(Cl)cc(Cl)c1OCc1ccc(F)cc1,13.7%
17,NC(=O)c1nsc(C(=O)N(c2ccccc2)C(C(=O)NC2CCCCC2)c2ccc(O)cc2)c1N (stereo not shown),6.54%
18,FC(F)(F)c1cnc(Oc2ccc(-c3nnco3)cc2)c(Cl)c1,12.2%
19,Cc1ccc(S(=O)(=O)NC(C(=O)O)c2ccccc2)cc1 (stereo not shown),12.8%
20,O=C(CN1C(=O)c2ccc([N+](=O)[O-])cc2C1=O)NCc1ccco1,15.2%
21,Cn1cc(S(=O)(=O)NC(c2ccccc2)c2ccccc2)c(=O)n(C)c1=O,3.54%
22,O=C(COc1ccccc1)N1CCN=C1SCc1ccccc1,11.1%

row,SMILES,"hERG current change (%, negative = inhibition) at 1uM"
1,O=C(Nc1ccccc1C(=O)NCc1cccnc1)c1cccc([N+](=O)[O-])c1,5.95%
2,COc1ccc(S(=O)(=O)Nc2nc3n(n2)C(c2ccc(Cl)cc2)CC(=O)N3)cc1 (stereo not shown),13.5%
3,CCOc1cccc(OCCOCCOc2ccccc2C(C)=O)c1,2.44%
4,O=C(Cc1ccc(Cl)cc1)Nc1ccc(N2CCN(C(=O)c3ccco3)CC2)c(Cl)c1,14.1%
5,O=C1c2ccccc2C(=O)N1CC(=O)N1c2ccccc2Sc2ccccc21,4.08%
6,OCC[C@@H]1C[C@@H](O)[C@H](O)[C@@]2(CCc3ccccc3CO2)O1,13.8%
7,O=C(NCc1cccnc1)Nc1ccccc1Cl,11.7%
8,c1ccc2[nH]c(CCCCc3nc4ccccc4[nH]3)nc2c1,-0.603%
9,Cc1ccccc1C(=O)NNS(=O)(=O)c1cccc([N+](=O)[O-])c1,19.2%
10,CC(C)c1ccc(NC(=S)N(C)CCc2ccccn2)cc1,7.68%
11,COc1ccc(-c2cc(=O)c3cc(F)ccc3[nH]2)cc1,9.03%
12,COc1cccc(/C=N/NC(=O)CC2C(=O)NN=C2C)c1OC (stereo not shown),6.72%
13,CCOc1ccc(C(=O)COC(=O)c2c(-c3ccccc3)noc2C)cc1,7.82%
14,COC(=O)C(O)(c1cn(C)c2ccccc12)C(F)(F)F (stereo not shown),13.1%
15,COn1c(=S)[nH]c2ccccc2c1=O,4.54%
16,Cc1occc1C(=O)N1CCC2(CC1)OCCO2,4.11%
17,CCOc1ccc(-c2csc(/C(C#N)=C\c3ccc(O)c([N+](=O)[O-])c3)n2)cc1,16.1%
18,O=C(NC(Cc1c[nH]c2ccccc12)C(=O)NCCCN1CCOCC1)c1cccs1 (stereo not shown),-26.8%
19,CC1(C)SCC(C(=O)O)NC1=O (stereo not shown),22.8%
20,CCOc1ccccc1NCc1cc(=O)oc2cc(C)ccc12,19.7%
21,COCCn1nnnc1C(c1cc2ccc(C)cc2[nH]c1=O)N(Cc1ccco1)Cc1cccs1 (stereo not shown),-6.06%
22,Cc1nc(N2CCN(C(=O)c3ccco3)CC2)c2c3c(sc2n1)CCCC3,-23.2%

row,SMILES,"hERG current change (%, negative = inhibition) at 1uM"
1,CCNC(=O)CC1C(=O)N(c2ccc(OC)cc2)C(=O)N1Cc1ccc(OC)cc1 (stereo not shown),1.71%
2,CCN(CC)C(=O)C1=C(C)NC(=O)NC1c1c(F)cccc1Cl (stereo not shown),3.88%
3,Cc1onc(-c2ccccc2)c1NC(=O)N(CCC(=O)O)Cc1ccccc1,-1.54%
4,Cc1cccc(-n2ncc3c(NC4CCCCC4)ncnc32)c1,-1.9%
5,Cc1ccc(C2NC(c3ccc(C)cc3)C(C)C(=NO)C2C)cc1 (stereo not shown),8.07%
6,COC(=O)N/N=C/c1ccc(/C=N/NC(=O)OC)cc1,7.63%
7,COc1ccc(C(=O)c2sc(Nc3ccccc3F)nc2N)cc1,13.1%
8,CC1CCCCN1S(=O)(=O)c1ccc2c(c1)CCN2C(=O)C1CC1 (stereo not shown),7.44%
9,COc1ccc(C)cc1S(=O)(=O)n1ccnc1C,6.75%
10,CC(=O)n1nc(-c2ccccc2)nc1NCc1cccs1,7.45%
11,CCOC(=O)c1c(NC(=O)/C=C/c2ccc3c(c2)OCO3)sc(C)c1CC,18.6%
12,NNC(=O)c1sccc1OCc1ccc(Cl)cc1Cl,6.27%
13,CSc1ccc(CNc2cccc3ccccc23)cc1,11.8%
14,CC(C)(C)C(=O)N1CCC(O)(CS(=O)(=O)Cc2ccc(Cl)cc2)CC1,-0.555%
15,CCOc1ccccc1/C=c1\sc2nc(-c3ccco3)nn2c1=O,11.3%
16,Cc1ccc(OCC(=O)NNC(=O)Cc2ccc(S(=O)(=O)N3CCOCC3)s2)cc1,17%
17,Cc1nn(CC(=O)Nc2ccc(Cl)c(S(=O)(=O)N(C)C)c2)c(C)c1[N+](=O)[O-],-2.98%
18,COc1ccc(C(=O)Nc2c(C(C)(C)C)nn(C)c2C(C)(C)C)cc1,4.78%
19,Cn1nc(C(=O)NCc2cccc(Cl)c2)c2c1-c1ccccc1S(=O)(=O)C2,11.2%
20,Cc1c2cnn(CC(=O)N3CCC4(CC3)OCCO4)c(=O)c2c(C)n1Cc1cccc(Cl)c1,-0.167%
21,CN(C)CCNC(=O)CN1C(=O)CSc2ccc(S(=O)(=O)N3CCCCC3)cc21,19%
22,CC(=O)N1N=C(c2c(O)n(C)c(=O)n(C)c2=O)CC1c1ccccc1 (stereo not shown),10.3%

row,SMILES,"hERG current change (%, negative = inhibition) at 1uM"
1,COc1ccc(C2(CNC(=O)c3ccc(OCC(C)C)cc3)CCOCC2)cc1,3.46%
2,Cc1ccc(N(CC(=O)NCc2ccc(F)cc2)C(=O)c2ccco2)cc1C,-4.53%
3,O=C(Oc1cc(=O)oc2ccccc12)c1ccco1,10.4%
4,CCC(=O)Nc1cccc(-n2nnnc2SCC(=O)c2ccc(C)c(C)c2)c1,11.3%
5,Cc1ccc(NC(=O)CN2C(=O)COc3ccc(S(=O)(=O)N4CCOCC4)cc32)cc1F,18%
6,COc1ccc(OC)c(S(=O)(=O)NCc2ccccn2)c1,14.4%
7,Cc1noc(C)c1S(=O)(=O)N(CC(=O)NC1CCC(C)CC1)c1ccc(C(C)C)cc1 (stereo not shown),18%
8,O=C(Nc1ccc(N2CCOCC2)c(Cl)c1)c1cc2ccccc2o1,-2.3%
9,Cc1ccc(C(C)NC(=O)C2CCCC2)c(C)c1 (stereo not shown),-0.786%
10,COc1ccc(C(C)=O)cc1CSc1nc2ccccc2c(=O)n1-c1ccccc1,2.13%
11,CC(=O)Nc1ccc(S(=O)(=O)NC(C)CCc2ccccc2)cc1 (stereo not shown),18.3%
12,O=C(O)c1cccc(S(=O)(=O)N(Cc2ccccc2)c2ccccc2)c1,13.8%
13,CCC/C=N/NC(=O)c1cc(-c2ccccc2)nc2ccccc12,8.58%
14,O=C(Nc1ccccc1Br)c1ccccc1-c1ccccc1,11%
15,Cc1nn(C)c(C)c1/C=C1/SC(=S)NC1=O,14.9%
16,COc1ccc(C(=O)CN2C(=O)c3ccccc3S2(=O)=O)cc1Br,12.5%
17,CCCCC1=CC2=C(c3ccco3)C(=O)C(C)(OC(=O)c3ccc(OC)cc3)C(=O)C2=CN1CCc1ccccn1 (stereo not shown),12.1%
18,CC1(C)CC(NC(=O)C2CCN(S(=O)(=O)c3cccc(C(F)(F)F)c3)CC2)CC(C)(C)N1,4.93%
19,CCN(CC)CCOC(=O)c1ccc(N)cc1.Cl,12.2%
20,CCOCCCNC(=O)CCNS(=O)(=O)c1ccc(C)cc1,11.3%
21,COc1cc(N=c2ssnc2Cl)c(OC)cc1Cl,12.6%
22,C=CCc1ccc(OCCCOc2ccc(C(=O)O)cc2)c(OC)c1,8.51%
